Several values for one entry are separate records, joined by “and”; a condition that tells them apart may be missing. Equal entries are not always repeated. Screen size: about 420,000 compounds; about 64,000 (15%) were called active. Inconclusive means that the source gave no clear call. Such entries were picked first, then a sample of the others. Calls follow the shape of the dose curve; as a rule, active = well fitted inhibition curve with a large enough effect; inconclusive = small, poorly fitted or top-dose-only effect; inactive = flat fitted curve, though single readings scatter. Potencies of inconclusive entries are left out as doubtful fits. Square brackets hold non-standard residues; d marks the D form. Peptide text beside a SMILES is read from it. * marks the point of attachment. ξ: configuration not given here. ξY = NC(Cc1ccc(O)cc1)C(=O)O; Cbz = O=C(OCc1ccccc1)*; OtBu = CC(C)(C)O*; tBu = CC(C)(C)*
Assay: qHTS for Inhibitors of human tyrosyl-DNA phosphodiesterase 1 (TDP1): qHTS in cells in absence of CPT; also: nearly all actives have a fitted effect of over 55% in size
Conditions: DT40 Tdp1-/- hTDP1 cells, no CPT, ATP luminescence, 48 h; activity change, negative = growth inhibition: at 46.2 µM (top of the series)
In short: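 Growth of hTDP1-complemented DT40 Tdp1-knockout cells is measured by ATP luminescence after at least 48 hr compound exposure at 37 °C, with DMSO substituting for the 20 nM CPT used in the parallel screen.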
% is scaled to controls: 0 for no effect and ±100 for the full control effect; potency is read from the fitted curve at half-maximal effect; tags tell the direction and shape of the fitted curve.

Question: For `O=C(CSc1nnc(-c2ccco2)o1)NCCc1ccccc1`, which Potency is on record?
Answer: inactive

Question: With `COCCN1C(=O)c2[nH]nc(-c3ccccc3O)c2C1c1ccc(OC)cc1` (stereo unspecified) as the compound, how does the Potency read?
Answer: inactive

Question: Which Potency does the source give for `Cc1ccc(S(=O)(=O)c2[nH]c(-c3ccccc3)nc2SC(C)C(=O)O)cc1` (stereo unspecified) here?
Answer: inconclusive [inhibitor, single point]

Question: Which Potency does the source give for `O=C(OCC(=O)N1CCCCC1)c1ccc(OC(F)(F)F)cc1` here?
Answer: inactive

Question: With `COc1cc2ncnc(Nc3cccc(Br)c3)c2cc1OC` as the compound, how does the Potency read?
Answer: inconclusive [inhibitor, partial curve, poor fit]

Question: For `CC(=O)Nc1cccc2ncccc12`, which Potency is on record?
Answer: inactive

Question: Which Potency does the source give for `C/C(=N\N(c1ccccc1)c1ccccc1)c1ccc(N)cc1` here?
Answer: inconclusive [inhibitor, partial curve, poor fit]

Question: Which Potency does the source give for `CCN(CC(=O)Nc1c(F)cccc1F)C(=O)CSCC(=O)Nc1ccc(OC)cc1` here?
Answer: inconclusive [inhibitor, partial curve, poor fit]

Question: For `Cn1nccc1-c1ccc(C(=O)NCc2ccc(Cl)cc2)c2occc12`, which Potency is on record?
Answer: inconclusive [inhibitor, single point]

Question: With `CCOC(=O)N1CCN(C(=O)c2cc3c(s2)-c2c(C)cccc2OC3)CC1` as the compound, how does the Potency read?
Answer: inconclusive [inhibitor, full curve]

Question: For `CC(=O)NC(c1cccc(F)c1)c1nc(-c2cnn(C)c2)cs1` (stereo unspecified), which Potency is on record?
Answer: active: 23.1 µM

Question: With `CC(C)(C)S(=O)N1Cc2cc(=O)n(Cc3ccccc3)cc2[C@@H]1CCO` (stereo partly specified) as the compound, how does the Potency read?
Answer: inactive

Question: For `Cc1cc(C)n(CC(O)Cn2cnc3c2c(=O)n(C)c(=O)n3C)n1` (stereo unspecified), which activity change, negative = growth inhibition is on record?
Answer: inconclusive: -8.74% [inhibitor]

Question: Which Potency does the source give for `CCCCNC(=O)c1nc(C2CCN(S(=O)(=O)c3ccc(S(C)(=O)=O)cc3)CC2)oc1-c1ccccc1` here?
Answer: active: 13 µM

Question: For `N=C1SCC(=O)N1c1ncc(Cc2cccc(Cl)c2)s1`, which Potency is on record?
Answer: inconclusive [inhibitor, single point]

Question: With `O=C1c2ccccc2/C(=C\C#Cc2ccccn2)N1c1ccccc1` as the compound, how does the Potency read?
Answer: inconclusive [inhibitor, single point]

Question: With `FC(F)(F)c1cccc(N2CCN(c3nc4ccccc4n4cnnc34)CC2)c1` as the compound, how does the Potency read?
Answer: active: 23.1 µM

Question: With `O=C(NCc1cccnc1)c1ccc(-c2cc3ccccc3oc2=O)cc1` as the compound, how does the Potency read?
Answer: inconclusive [inhibitor, partial curve, poor fit]

Question: For `O=C(NN=C1CCN(Cc2ccccc2)CC1)c1cc2ccccc2cc1O`, which Potency is on record?
Answer: inactive

Question: With `C=CCn1c(COc2ccccc2F)nnc1SCC(=O)Nc1cc2oc3ccccc3c2cc1OC` as the compound, how does the Potency read?
Answer: inconclusive [inhibitor, single point]

Question: For `c1ccc(-n2c3ccccc3c3ccccc32)cc1`, which Potency is on record?
Answer: inconclusive [inhibitor, single point]

Question: Which Potency does the source give for `CCCCCCCCN1C(=O)[C@H](CC(=O)N2CCC(c3ccccc3)CC2)C[C@@]2(C(=O)OC)CCCCC=C12` here?
Answer: active: 18.4 µM

Question: Which Potency does the source give for `CCOC(=O)C1C(C)C(C(C)(C)C)N(S(=O)(=O)c2ccc(C)cc2)C1c1ccccc1` (stereo unspecified) here?
Answer: active: 16.4 µM

Question: With `CCC(C(=O)Nc1cc(C)cc(C)n1)c1ccccc1` (stereo unspecified) as the compound, how does the Potency read?
Answer: inconclusive [inhibitor, single point]

Question: With `CC(=O)c1sc(NC(=O)CN2C(=O)NC3(CCCC3)C2=O)nc1-c1ccccc1` as the compound, how does the Potency read?
Answer: inactive

Question: For `Cc1ccc(NC(=O)CSc2nnc(-c3cc4occc4n3C)n2-c2ccccc2C)c(C)c1`, which Potency is on record?
Answer: active: 18.4 µM

Question: With `Oc1c(Cl)cc(Cl)c2cccnc12` as the compound, how does the Potency read?
Answer: active: 2.59 µM and active: 8.2 µM

Question: With `CCOC(=O)C1=C(C)NC2=C(C(=O)C(C(=O)OCC)C(c3ccco3)C2)C1c1ccccc1C` (stereo unspecified) as the compound, how does the Potency read?
Answer: active: 22.4 µM

Question: For `O=C(NCc1ccccc1)C(=O)NCC1COc2ccccc2O1` (stereo unspecified), which Potency is on record?
Answer: active: 2.59 µM

Question: For `COc1cc(NC(=O)COc2cc(C)cc3oc(=O)cc(C)c23)cc(OC)c1OC`, which Potency is on record?
Answer: inconclusive [inhibitor, partial curve]

Question: Which Potency does the source give for `CCOc1ccccc1CNc1nc2ccccc2n1C` here?
Answer: inconclusive [inhibitor, partial curve, poor fit]

Question: With `CC(=O)c1sc(Nc2nc3ccc(F)cc3s2)nc1C` as the compound, how does the Potency read?
Answer: inconclusive [inhibitor, single point]

Question: For `COc1cccc(CC(=O)Nc2ccc3nc(C)sc3c2)c1`, which Potency is on record?
Answer: active: 13 µM

Question: For `CSc1nc(NS(=O)(=O)c2cc(Br)ccc2Br)cc(=O)[nH]1`, which Potency is on record?
Answer: inconclusive [inhibitor, single point]

Question: For `Cc1ccc(N(C(=O)Cn2nnc(-c3ccccc3)n2)C(C(=O)NC2CCCCC2)c2ccccn2)cc1C` (stereo unspecified), which Potency is on record?
Answer: inconclusive [inhibitor, single point]

Question: Which Potency does the source give for `CCOc1ccc(-n2c(=O)c3sccc3n(Cc3ccc(C)cc3)c2=O)cc1` here?
Answer: inconclusive [inhibitor, single point]

Question: With `CCOC(=O)c1c(NC(=O)COc2ccccc2)sc2c1CC(C)(C)NC2(C)C` as the compound, how does the Potency read?
Answer: active: 16.4 µM

Question: For `CC(C)CCSc1nc(N2CCOCC2)c2c(c1C#N)CC(C)(C)OC2`, which Potency is on record?
Answer: inconclusive [inhibitor, partial curve]

Question: Which Potency does the source give for `CC(=O)N1c2ccc(S(=O)(=O)N3CCCC3C(=O)Nc3ccc(C)cc3)cc2CC1C` (stereo unspecified) here?
Answer: inconclusive [inhibitor, partial curve]

Question: With `Cn1cc(C=O)c2cc(F)ccc21` as the compound, how does the Potency read?
Answer: inactive

Question: With `O=C(CSc1nnc(SCc2ccccc2)s1)N/N=C/C=C/c1ccco1` as the compound, how does the Potency read?
Answer: inconclusive [inhibitor, single point]

Question: For `CCOC(=O)c1[nH]c(=S)n(-c2ccccc2)c1C(=O)OCC`, which Potency is on record?
Answer: inactive

Question: For `Cc1ccn2c(=O)cc(COc3ccc(NC(=O)C(C)(C)C)cc3)nc2c1`, which Potency is on record?
Answer: inconclusive [inhibitor, single point]

Question: Which Potency does the source give for `Cc1cc(S(=O)(=O)N2CCN(CC(=O)NCCc3cccs3)CC2)ccc1Br` here?
Answer: inconclusive [inhibitor, single point]

Question: For `CCS(=O)(=O)N1CCc2cc(C(=O)NC(C)c3ccccc3)ccc21` (stereo unspecified), which Potency is on record?
Answer: inconclusive [inhibitor, partial curve]

Question: Which Potency does the source give for `CC(C)Oc1ccc(CNC(=O)CN2C(=O)c3cccnc3Oc3ccc(Cl)cc32)cc1` here?
Answer: active: 18.4 µM

Question: Which Potency does the source give for `CCOC(=O)N1CCC(N(C(=O)Nc2ccc(Cl)c(Cl)c2)C(C)CC)CC1` (stereo unspecified) here?
Answer: active: 10.3 µM

Question: For `CN(C)c1ccc(NS(=O)(=O)c2ccc(-c3csnn3)cc2)cc1`, which Potency is on record?
Answer: active: 13 µM

Question: Which Potency does the source give for `O=c1c2sc3ccccc3c2n(Cc2cccc(C(F)(F)F)c2)c(=O)n1-c1ccccc1` here?
Answer: active: 13 µM

Question: Which Potency does the source give for `COc1ccc([C@H]2CC(=O)C=C(c3ccc(F)cc3OCc3ccccc3)C2)cc1` here?
Answer: inconclusive [inhibitor, single point]

Question: Which Potency does the source give for `COc1ccccc1NS(=O)(=O)c1cccc(C(=O)N(C)Cc2cccs2)c1` here?
Answer: active: 23.1 µM

Question: For `Cc1ccsc1C(=O)Nc1ccc(O)c(-c2nc3ccccc3s2)c1`, which Potency is on record?
Answer: inactive

Question: With `CC(C)(C)OC(=O)C(Cc1ccc(OC(C)(C)C)cc1)NC(=O)CNC(=O)OCc1ccccc1` (stereo not drawn) (Cbz-Gly-[ξY](tBu)-OtBu) as the compound, how does the Potency read?
Answer: active: 11.6 µM

Question: For `CC1(C)CC[C@]2(CO)CC[C@]3(C)C(=CCC4[C@@]5(C)CC[C@H](O)[C@@](C)(CO)C5CC[C@]43C)[C@@H]2C1` (stereo partly specified), which activity change, negative = growth inhibition is on record?
Answer: inconclusive: -30.5% [inhibitor]

Question: For `O=C(Nc1ccc(S(=O)(=O)N2CCCC2)cc1)c1ccc(OCC2CCCO2)cc1` (stereo unspecified), which Potency is on record?
Answer: inactive

Question: Which Potency does the source give for `Cc1ccc(C(=O)CSc2ncnc3sc4c(c23)CCC(C)C4)cc1` (stereo unspecified) here?
Answer: inconclusive [inhibitor, single point]

Question: With `Cc1ccc(S(=O)(=O)N2CCOCC2)cc1NC(=O)CN(C)CC(=O)Nc1cccc(F)c1` as the compound, how does the Potency read?
Answer: active: 20.6 µM

Question: With `CC1CCCC(NC(=O)c2cccc(S(=O)(=O)N3CCOCC3)c2)C1C` (stereo unspecified) as the compound, how does the Potency read?
Answer: inconclusive [inhibitor, partial curve, poor fit]

Question: Which Potency does the source give for `O=C(CSc1nnc(Cc2cccs2)n1Cc1ccco1)Nc1cc(Cl)cc(Cl)c1` here?
Answer: inconclusive [inhibitor, partial curve]

Question: Which Potency does the source give for `COc1cc(C(=O)NCCC2=CCCCC2)ccc1OC1CCN(C(C)=O)CC1` here?
Answer: inconclusive [inhibitor, single point]

Question: Which Potency does the source give for `CCOCCn1c(N(C)Cc2ccccc2)nc2c1c(=O)[nH]c(=O)n2C` here?
Answer: inactive

Question: With `O=C(O)c1ccc(Cl)c(NCc2cccs2)c1` as the compound, how does the Potency read?
Answer: inactive

Question: Which Potency does the source give for `CN(CC(=O)Nc1ccccc1C(F)(F)F)C(=O)c1ccccc1Sc1ccccc1C#N` here?
Answer: inconclusive [inhibitor, single point]

Question: Which Potency does the source give for `CCOc1ccc(C(=O)NCC(=O)N2CC=C(c3ccccc3)CC2)cc1OCC` here?
Answer: inactive

Question: For `Cc1ccc(-c2cc3onc(-c4ccccc4)c3c(=O)n2C)cc1`, which Potency is on record?
Answer: inconclusive [inhibitor, single point]

Question: Which Potency does the source give for `Cn1c(COc2ccccc2C(C)(C)C)nc2ccccc21` here?
Answer: inconclusive [inhibitor, partial curve, poor fit]

Question: Which Potency does the source give for `CCC(=O)N1CCCC(C(=O)NS(=O)(=O)c2cc(C)c(Cl)cc2C)CC1` (stereo unspecified) here?
Answer: inactive

Question: For `COc1cccc2cc(C(=O)NCCc3ccccc3)oc12`, which Potency is on record?
Answer: inconclusive [inhibitor, single point]

Question: For `CCOC(=O)[C@@H]1[C@H]2COc3ccc(Br)cc3[C@@H]2N2C(=O)N(c3ccc(F)cc3)C(=O)[C@@]12C`, which Potency is on record?
Answer: inconclusive [inhibitor, single point]

Question: With `NC(=O)C1CCN(c2ccc(S(=O)(=O)N3CCC(Cc4ccccc4)CC3)cn2)CC1` as the compound, how does the Potency read?
Answer: active: 13 µM

Question: Which Potency does the source give for `COCc1cccc(-c2csc(C(N)c3ccc(F)c(F)c3)n2)c1` (stereo unspecified) here?
Answer: inconclusive [inhibitor, full curve]

Source: PubChem BioAssay AID686978 (National Center for Advancing Translational Sciences (NCATS), 2013)
